T1: Mad2-binding motif of Cdc20 (Limits not printed. 111-138 is the conventional Mad2-binding fragment of human Cdc20 around the KILR motif (129-132). Check residues come from the candidate's motif feature, not from the paper.)
T1 chain: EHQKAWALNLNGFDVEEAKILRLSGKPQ


Target: T1, Mad2-binding motif of Cdc20
Assay: ITC

| Binder | Kd [nM] |
| --- | --- |
| Mad2 R133A, S170A (protein) not shown | 81 |
| Mad2 R133A, D160A (protein) not shown | 260 |
| Mad2 R133A, T12A (protein) not shown | 110 |
| Mad2 R133A, V181A (protein) not shown | 100 |
| Mad2 R133A, F151A (protein) not shown | 290 |
| Mad2 R133A, K200A (protein) not shown | 170 |
| Mad2 R133A, L154A (protein) not shown | 1210 |
| Mad2 R133A, V163A (protein) not shown | 230 |
| Mad2 R133A, E179A (protein) not shown | 160 |
| Mad2 R133A, I88A (protein) not shown | 200 |
| Mad2 R133A, L84A (protein) not shown | 160 |
| Mad2 R133A, D158A (protein) not shown | 130 |
